Assay results: article PMC4336329 (PLoS ONE, 2015)
The campaign covered roughly 310,000 compounds. About 14,000 (4.5%) showed an effect of 50% or more. The effect is printed as a negative number. This is one part of the list.

target: human ether-à-go-go-related gene (hERG) potassium channel (human, UniProt Q12809); test: primary screen, population patch clamp on CHO cells stably expressing hERG
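Note: peak tail current of the secondary pulse compared with the same well before compound.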

Sequence of human ether-à-go-go-related gene (hERG) potassium channel (Q12809 whole entry, looked up): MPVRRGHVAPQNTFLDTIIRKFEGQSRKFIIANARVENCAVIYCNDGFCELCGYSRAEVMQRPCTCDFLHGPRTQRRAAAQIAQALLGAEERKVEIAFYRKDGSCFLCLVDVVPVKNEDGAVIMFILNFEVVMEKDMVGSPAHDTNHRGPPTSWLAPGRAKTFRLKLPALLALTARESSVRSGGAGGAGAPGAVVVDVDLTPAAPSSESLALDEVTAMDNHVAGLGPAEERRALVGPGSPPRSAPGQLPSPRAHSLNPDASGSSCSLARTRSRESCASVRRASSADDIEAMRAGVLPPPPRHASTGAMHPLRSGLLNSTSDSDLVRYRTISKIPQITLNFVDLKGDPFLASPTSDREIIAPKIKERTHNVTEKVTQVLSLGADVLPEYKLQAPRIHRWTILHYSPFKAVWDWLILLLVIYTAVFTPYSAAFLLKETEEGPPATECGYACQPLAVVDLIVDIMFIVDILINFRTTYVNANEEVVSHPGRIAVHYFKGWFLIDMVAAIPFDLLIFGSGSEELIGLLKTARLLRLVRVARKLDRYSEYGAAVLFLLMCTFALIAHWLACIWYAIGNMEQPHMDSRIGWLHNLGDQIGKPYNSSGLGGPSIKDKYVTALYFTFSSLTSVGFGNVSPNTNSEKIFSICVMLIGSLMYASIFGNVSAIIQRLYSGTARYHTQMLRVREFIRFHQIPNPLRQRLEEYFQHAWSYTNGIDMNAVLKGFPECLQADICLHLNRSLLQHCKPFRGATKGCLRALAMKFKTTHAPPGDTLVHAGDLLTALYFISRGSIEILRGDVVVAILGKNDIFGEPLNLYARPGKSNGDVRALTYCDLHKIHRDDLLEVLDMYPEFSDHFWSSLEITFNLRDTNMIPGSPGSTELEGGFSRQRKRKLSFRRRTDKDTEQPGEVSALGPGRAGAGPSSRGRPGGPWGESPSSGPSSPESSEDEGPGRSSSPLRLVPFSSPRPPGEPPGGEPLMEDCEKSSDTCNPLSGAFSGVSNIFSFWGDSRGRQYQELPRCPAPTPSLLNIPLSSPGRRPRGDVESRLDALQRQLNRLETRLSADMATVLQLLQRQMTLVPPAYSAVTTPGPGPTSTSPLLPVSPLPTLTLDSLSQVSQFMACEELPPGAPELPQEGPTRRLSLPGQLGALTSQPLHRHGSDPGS

Row | Structure (SMILES) | hERG current change (%, negative = inhibition) at 10uM
1 | COc1c(C)cc(C(=O)C2CCCN(Cc3ccc(Oc4ncccn4)cc3)C2)cc1C (stereo not shown) | -68.9%
2 | CCOc1c2ccc(C(=O)NCc3ccco3)cc2nn1CCOC | -0.63%
3 | CC1CCN(C(=S)c2cn(Cc3ccc(F)cc3)c3ccccc23)CC1 | -1.82%
4 | COc1ccc(C(=O)N/N=C/c2ccccc2OC(=O)c2ccccc2)cc1 | 8.46%
5 | COc1ccc(C(=O)Nc2cc(C(C)=O)c(/C=C/N(C)C)oc2=O)cc1 | -1.16%
6 | CCn1c(SCC(=O)NCc2ccc3c(c2)OCO3)nnc1-c1ccncc1 | 13%
7 | CC(=O)NC(Cc1ccccc1C)C(=O)NC1CCN(c2nnnn2-c2ccccc2)CC1 (stereo not shown) | -3.31%
8 | CC(C)CSc1n[nH]c(N)n1 | 10.5%
9 | CCOc1ccc2nc(NC(=O)C3=NN(c4ccccc4)C(=O)CC3)sc2c1 | -3.33%
10 | CCN(CC)S(=O)(=O)c1cccc(NC(=O)COC(=O)C2CC3C=CC2C3)c1 (stereo not shown) | -19.5%
11 | O=C1c2ccccc2CC1(Cc1ccccc1)Cc1ccccc1 | -10%
12 | O=C(CSCc1cccc(Cl)c1)N1CCN(Cc2ccc3c(c2)OCO3)CC1 | -44.4%
13 | CCCCCCC(=O)Nc1ccc(C(=O)N/N=C/c2cccnc2)cc1 | -21.1%
14 | O=C1NN=COc2ccccc21 | 14.9%
15 | CC(C)CC(=O)Nc1ccc(C(=O)COC(=O)C2=COCCO2)cc1 | -23.5%
16 | Cc1nc(SCC(=O)Nc2ccc(Cl)cc2[N+](=O)[O-])nc(C)c1C | -1.92%
17 | CCOC(=O)C1CCCN(CCC(=O)Nc2ccc3c(c2)CCC3)C1 (stereo not shown) | -50.4%
18 | CCOc1ncccc1-c1nc(-c2cccs2)no1 | 8.42%
19 | CN1CCN(C(=O)C2=C[C@H](c3ccc4c(c3)OCO4)C[C@H](OCCCCO)O2)CC1 | -8.06%
20 | CCCc1ccc2oc(C(=O)N3CCN(C4CCS(=O)(=O)C4)CC3)c(C)c2c1 (stereo not shown) | -51.3%
21 | CC(C)CC(=O)Nc1ccc(S(=O)(=O)N2CC3CC(C2)c2cccc(=O)n2C3)cc1 (stereo not shown) | 7.52%
22 | Cc1cccc(Nc2c([N+](=O)[O-])c(=O)n(C)c3ccccc23)c1 | -25.7%

Row | Structure (SMILES) | hERG current change (%, negative = inhibition) at 10uM
23 | CCn1c(CC(=O)Nc2ccc(Cl)c(Cl)c2)nnc1SCc1ccc(C)cc1 | 27.4%
24 | CC(C(=O)Nc1cccc([N+](=O)[O-])c1)N1C(=O)NC2(CCCC2)C1=O (stereo not shown) | 15.7%
25 | COc1ccc(S(=O)(=O)N2CCCCC2)cc1NC(=O)c1ccc(=O)[nH]c1 | -12.2%
26 | Cn1c(=O)c2c(nc(Oc3ccc4c(c3)OCO4)n2Cc2ccc(Br)cc2)n(C)c1=O | 1.82%
27 | CC(C)c1ccc(/C=N/NC(=O)c2nnn(-c3nonc3N)c2CSC2=NCCS2)cc1 | 17.9%
28 | O=C(NCc1ccccn1)C1CCC(=O)N(Cc2ccc(Cl)cc2)C1 (stereo not shown) | 18.7%
29 | c1cn2cc(CSC3CCCCC3)nc2s1 | -2.82%
30 | O=C(CN(c1ccccc1)S(=O)(=O)c1ccccc1[N+](=O)[O-])N1CCCC1 | 3.51%
31 | CCCCOC(=O)C1=C(C)Nc2ncnn2C1c1ccc(OCC)c(OC)c1 (stereo not shown) | -10.5%
32 | O=C(CSc1nc(C2CCCCC2)n(-c2ccccc2)n1)NCCN1C(=O)CSC1=O | -15.7%
33 | Nc1ccc(S(=O)(=O)NC2=NCCCCC2)cc1 | 19.3%
34 | O=C(Cc1ccc(S(=O)(=O)N2CCOCC2)s1)NCCOc1ccccc1F | -8.5%
35 | COC(=O)C1=C(c2ccccc2)C[C@@H]2CC[C@H]1N2C(=O)NCc1cccc2ccccc12 | -12.2%
36 | CC(C(=O)O)C1SC(=O)NC1=O (stereo not shown) | 6.11%
37 | O=C1NCCCCC1NS(=O)(=O)c1cccc(C(F)(F)F)c1 (stereo not shown) | 1.19%
38 | O=S1(=O)CCOC[C@H](Cc2ccccc2)N1Cc1cccc(F)c1 | -26.7%
39 | Cc1ccccc1NC(=O)c1ccc(F)c(S(=O)(=O)N2CCN(c3ccccn3)CC2)c1 | 2.08%
40 | COC(=O)CNc1nc(-c2ccncc2)nc2ccccc12 | 1.71%
41 | CSc1ncccc1C(=O)OCC(=O)NC(=O)NCCC(C)C | 0.954%
42 | Cc1ccc(OCCCn2ccnc2)c([N+](=O)[O-])c1 | -34.4%
43 | COc1cc(C2CC(=O)c3cnc(NC(=O)c4ccco4)nc3C2)cc(OC)c1OC (stereo not shown) | 6.39%
44 | O=C(Nc1cccc2ccccc12)NC1CCCCC1O (stereo not shown) | 0.227%

Row | Structure (SMILES) | hERG current change (%, negative = inhibition) at 10uM
45 | CCc1nc2c(n1O)CCc1nonc1-2 | 4.58%
46 | C/C(=N/NC(=O)c1ccccc1O)c1ccc(N2C(=O)C3CCCCC3C2=O)cc1 (stereo not shown) | 14.7%
47 | CC(=O)N1CCc2cc(S(=O)(=O)NC(C(=O)NC3CCCc4ccccc43)C(C)C)ccc21 (stereo not shown) | 10%
48 | CCOc1ccc2nc(SCC3CC3(Cl)Cl)[nH]c2c1 (stereo not shown) | -5.08%
49 | O=C(CC1CC2CCC1C2)NCc1cccs1 (stereo not shown) | 2.09%
50 | COc1ccccc1C(=O)COC(=O)c1ccccc1OCC(=O)Nc1ccc(SC(F)F)cc1 | 12.6%
51 | Cc1ccc(S(=O)(=O)NCC(=O)OCC(=O)c2ccc(Cl)s2)cc1 | 1.12%
52 | COc1ccc2c(c1OC)C(=O)N1C2SC[C@H]1C(=O)NC1CCCC1 (stereo partly shown) | 6.57%
53 | Cc1ccc(SCCNC(=O)c2ccccc2)cc1 | -0.806%
54 | Cc1c(C2OC(=O)C3(CCCCC3)C(=O)C2(C)C)c(=O)n(-c2ccccc2)n1C (stereo not shown) | -5.45%
55 | O=C(CCOc1ccccc1)Nc1ccnn1C1CCN(Cc2ccc(CO)o2)CC1 | 6.52%
56 | Cc1ccc(N2CC(C(=O)N3CCC(C(=O)NC(C)(C)C)CC3)CC2=O)cc1 (stereo not shown) | 20.2%
57 | CC(C)Cn1nnc2c(=O)oc3ccccc3c21 | -7.26%
58 | CCN(CCO)c1ncnc2onc(-c3ccc(F)cc3)c12 | 16.9%
59 | COc1ccc(N2C(=S)N=C(Nc3cccc(C)c3)C23CCCCC3)cc1 | 15.7%
60 | Cc1ccccc1NC(=S)NCc1cccn1C | 9.48%
61 | CCOC(=O)c1c(S(=O)(=O)Nc2ccc(F)cc2Cl)c(C)n(C)c1C | 8.34%
62 | CC1S/C(=N/N=C2CCCCC2)NC1=O (stereo not shown) | 24.4%
63 | COc1ccc(S(=O)(=O)N2CCCN(C)CC2)cc1.Cl | 1.55%
64 | CN(CCNC(=O)C1CCN(c2ncnc3c2nc2n3CCCCC2)CC1)Cc1ccccc1 | -15.5%
65 | Cc1cnc(NC(=O)Cc2ccccc2F)s1 | 19.4%
66 | CC1CCCCC12NC(=O)N(CC(=O)OCC(=O)NC(=O)c1ccccc1)C2=O (stereo not shown) | 5.39%

Row | Structure (SMILES) | hERG current change (%, negative = inhibition) at 10uM
67 | CCCCNC(=O)c1ccc2nc(-c3ccco3)c(-c3ccco3)nc2c1 | -25.1%
68 | O=C(NNC1=NCCC1)c1cccc(S(=O)(=O)N2CCOCC2)c1 | 18.5%
69 | O=C(C1CCCCC1)N1CCCC(c2nc3c(nnn3Cc3ccccc3)c(=O)[nH]2)C1 (stereo not shown) | -8.73%
70 | O=C1OCC2=C1C(c1ccccc1)CC(=O)N2c1ccccc1 (stereo not shown) | 3.43%
71 | Cc1ccc(S(=O)(=O)N2CCCCC2)cc1NS(=O)(=O)c1cccc(C(=O)O)c1 | 22%
72 | Nn1c(SCC(=O)NC2CCCC2)nnc1-c1ccccc1F | 5.05%
73 | COc1cccc(CSc2nc3sc(C)c(C)c3c(=O)n2Cc2ccco2)c1 | 9.54%
74 | CCOC(=O)N1CCN(C(=O)c2cc(C)no2)CC1 | 10.3%
75 | O=C1NC(c2ccccc2)=NC1(NS(=O)(=O)c1ccccc1)C(F)(F)F (stereo not shown) | -3.5%
76 | COCCNC(=O)CSc1nnc(CCCN2C(=O)c3cccc4cccc(c34)C2=O)n1-c1ccccc1 | -11%
77 | Clc1cccc(Cl)c1/C=C/c1nc2ccccc2[nH]1 | -9.4%
78 | CCN(CC)S(=O)(=O)c1ccc(NC(=O)c2cc(C(=O)OC)cc([N+](=O)[O-])c2)cc1 | 10.3%
79 | CN(C(=O)Cc1ccc2c(c1)OCO2)C1CCCN(Cc2ccccc2F)C1 (stereo not shown) | -2.2%
80 | Cc1oc(-c2cccc(Cl)c2)nc1CN1CCC(C(=O)NCC2CCCO2)CC1 (stereo not shown) | -57.1%
81 | CC(OC(=O)c1ccc(S(=O)(=O)N2CCCCC2)cc1)C(=O)Nc1ccc(C(N)=O)cc1 (stereo not shown) | 17.4%
82 | CC(C)c1nc(SCC(=O)Nc2ccc3c(c2)OCCO3)c2c(=O)n(C)c(=O)n(C)c2n1 | 21.9%
83 | Fc1ccc(CNC(=S)NCc2cccc(Cl)c2)cc1 | -32.8%
84 | Cc1cc(C(=O)Nc2ccc(Cl)cc2)c2ccccc2n1 | 2.76%
85 | Cc1nn(Cc2ccc(Cl)cc2Cl)c(Cl)c1C(=O)Nc1ccc(OC(F)F)cc1 | -5.15%
86 | COc1cc(/C=N/Nc2nc(Nc3ccccc3)nc(N3CCOCC3)n2)ccc1OC(=O)c1ccco1 | 13.6%
87 | CCOc1cc(N2CCOCC2)c(OCC)cc1NC(=O)c1cc(C)nc2ccccc12 | 10.6%
88 | CCOC(=O)C1CCCN(Cc2nc(Cc3cccc(F)c3)no2)C1 (stereo not shown) | -6.6%
